This is an account of results in patent US20200000825A1, “METHODS AND COMPOSITIONS FOR TREATING AND PREVENTING VIRAL INFECTIONS” (ENTERIN LABORATORIES, INC., priority 2009, published 2020).

This assay relates to RAW 264.7 macrophage line. As to the kind of experiment: Displacement of fluorescent membrane probes Trunc Cat Tail and H-Ras (Example 1). The settings on record: squalamine 10 micromolar in culture medium.

Take `CC(C)[C@@H](CC[C@@H](C)[C@H]1CC[C@H]2[C@@H]3[C@H](O)C[C@H]4C[C@@H](NCCCNCCCCN)CC[C@]4(C)[C@H]3CC[C@]12C)OS(=O)(=O)O` [Squalamine, squalamine]: the “Localization of H-Ras probe” value was “remains associated with the membrane” and the “Localization of Trunc Cat Tail probe” value was “displaced into the cytoplasm”.
